Results from PubChem BioAssay AID2147 (National Center for Advancing Translational Sciences (NCATS), 2009).
Among all 230,000 compounds or so, about 3,600 (1.6%) were called active. The shares of active, inactive and inconclusive entries below differ from those in the screen. The call rests on the fitted dose curve; in most records, active means well fitted inhibition curve with a large enough effect (not every such curve was filed as active); inconclusive means small, poorly fitted or top-dose-only effect, or another doubt; inactive means no such curve, though single readings can be large or run the other way. Where the call is inconclusive, the potency comes from a doubtful curve fit.

biological target: Lysine-specific demethylase 4E (Homo sapiens) (UniProt B2RXH2); test: qHTS Assay for Inhibitors of Human Jumonji Domain Containing 2E (JMJD2E); details: JMJD2E catalytic domain, FDH-coupled NADH fluorescence (FDH is formaldehyde dehydrogenase); series mostly up to 57.1 µM
UniProt B2RXH2, sequence (B2RXH2 whole entry, looked up, the tested form may be a part): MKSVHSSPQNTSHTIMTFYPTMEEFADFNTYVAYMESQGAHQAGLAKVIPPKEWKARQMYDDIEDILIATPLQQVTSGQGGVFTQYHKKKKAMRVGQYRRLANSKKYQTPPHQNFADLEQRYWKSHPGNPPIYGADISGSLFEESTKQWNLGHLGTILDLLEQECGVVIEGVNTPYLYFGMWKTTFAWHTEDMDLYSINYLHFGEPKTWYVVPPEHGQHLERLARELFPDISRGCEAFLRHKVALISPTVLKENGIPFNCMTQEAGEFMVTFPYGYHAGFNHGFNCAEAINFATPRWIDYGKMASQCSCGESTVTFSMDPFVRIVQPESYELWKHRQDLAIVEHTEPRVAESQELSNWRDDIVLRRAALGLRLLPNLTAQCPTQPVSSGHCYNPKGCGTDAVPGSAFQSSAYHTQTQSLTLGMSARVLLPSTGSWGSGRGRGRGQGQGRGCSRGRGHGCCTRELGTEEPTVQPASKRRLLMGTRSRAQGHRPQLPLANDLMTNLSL
Further: nearly all actives have a fitted effect of over 50% in size.
Potency means the concentration at half of the fitted maximal effect; tags describe the fitted curve by direction and shape.

Row | SMILES | Potency
1 | COC(=O)c1ccc2c(=O)n(Cc3ccc(C(=O)NCCCN4CCC(C)CC4)cc3)c(=S)[nH]c2c1 | inconclusive: 39.8 µM [inhibitor, single point]
2 | COc1ccc(CN2CCn3ncc(C(=O)Nc4cc(C)cc(C)c4)c3C2=O)cc1 | inconclusive: 22.4 µM [inhibitor, partial curve]
3 | Cc1c2c(n3c(nc4ccccc43)c1C#N)N(CCCN(C)C)CC2 | inconclusive: 28.2 µM [inhibitor, partial curve]
4 | CCN1CCN(C(=S)c2ccc(O)cc2)CC1 | inactive
5 | O=S(=O)(N=S(N1CCCCC1)N1CCCCC1)c1ccccc1 | inconclusive: 28.2 µM [inhibitor, single point]
6 | CC(C)[C@@H]1CC[C@@H](C)c2c(-c3ccccc3)n[nH]c21 | inconclusive: 39.8 µM [inhibitor, single point]
7 | Oc1ccc2ccccc2c1C=Nc1ccc(N2CCOCC2)cc1 | inconclusive: 10 µM [inhibitor, partial curve]
8 | COc1cc(/C=N/NC(=O)[C@H](Cc2c[nH]c3ccccc23)NC(=O)OCC(C)C)cc([N+](=O)[O-])c1O | inconclusive: 39.8 µM [inhibitor, single point]
9 | Cc1ccc(NC(=S)Nc2cc(C(=O)O)ccc2N2CC3CC(C2)c2cccc(=O)n2C3)cc1C (stereo not drawn) | inactive
10 | O=C(NCc1ccc2c(c1)OCO2)c1ccc2c(=O)n(C3CCCC3)c(=O)[nH]c2c1 | inconclusive: 28.2 µM [inhibitor, single point]
11 | CN(C)c1ccc(/C=N\NC(=O)c2cccc3cc[nH]c23)cc1 | inconclusive: 35.5 µM [inhibitor, single point]
12 | CCOCCCNC(=O)Cc1c(C(=O)O)[nH]c2ccc(Cl)cc12 | inconclusive: 39.8 µM [inhibitor, single point]
13 | CCOc1ccc2nc(SC3CC(=O)N(c4ccccc4)C3=O)sc2c1 (stereo not drawn) | inconclusive: 20 µM [inhibitor, single point]
14 | Cc1[nH]c(N=Nc2ccccc2)nc1N=Nc1ccccc1 | inconclusive: 35.5 µM [inhibitor, single point]
15 | COc1ccc(N2CCN(C(CNC(=O)OCc3ccccc3)c3ccco3)CC2)cc1 (stereo not drawn) | inactive
16 | c1ccc(C2=Nc3cccc4cccc(c34)N2)cc1 | inconclusive: 3.98 µM [inhibitor, partial curve]
17 | Cc1onc(-c2ccccc2)c1C(=O)NNC(=S)NC(=O)c1ccc2c(c1)OCO2 | inconclusive: 39.8 µM [inhibitor, single point]
18 | CC1CC(c2ccccc2)n2nc(NC(=O)CCc3ccccc3)nc2N1 (stereo not drawn) | inactive
